Laboratory results reported in PubChem BioAssay AID1347165 (National Center for Advancing Translational Sciences (NCATS), 2019).
The campaign covered roughly 220,000 compounds. About 5,700 (2.6%) were called active. The inconclusive results got no clear call from the source; some entries with a clear call stand among them for comparison. The call rests on the fitted dose curve; in most records, active means well fitted inhibition curve with a large enough effect; inconclusive means small, poorly fitted or top-dose-only effect; inactive means no such curve, though single readings can be large or run the other way. Where the call is inconclusive, the potency comes from a doubtful curve fit.

What follows are compounds tested against Lysine-specific demethylase 5B (Homo sapiens) (UniProt Q9UGL1) (assay: Primary screen for KDM5B Histone Demethylases FDH-coupled qHTS). Settings: FDH-coupled NADH fluorescence (FDH is formaldehyde dehydrogenase); activity change, negative = inhibition: at 57.7 µM (top of the series) unless noted.
Procedure, shortened: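 Here, H3K4me3 peptide (12.5 µM in substrate mix) is demethylated by KDM5BΔAP, 200 nM final, after 10 min compound exposure. Formaldehyde product is coupled through FDH (0.25 U/mL in mix) to NADH fluorescence; 30-min ΔRFU feeds dose-response curves.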
Further: nearly all actives have a fitted effect of over 70% in size.
Potency means the concentration at half of the fitted maximal effect; tags describe the fitted curve by direction and shape.
Wherever activity change, negative = inhibition is given: 0% is about no effect.

UniProt Q9UGL1, sequence (Q9UGL1 whole entry, looked up): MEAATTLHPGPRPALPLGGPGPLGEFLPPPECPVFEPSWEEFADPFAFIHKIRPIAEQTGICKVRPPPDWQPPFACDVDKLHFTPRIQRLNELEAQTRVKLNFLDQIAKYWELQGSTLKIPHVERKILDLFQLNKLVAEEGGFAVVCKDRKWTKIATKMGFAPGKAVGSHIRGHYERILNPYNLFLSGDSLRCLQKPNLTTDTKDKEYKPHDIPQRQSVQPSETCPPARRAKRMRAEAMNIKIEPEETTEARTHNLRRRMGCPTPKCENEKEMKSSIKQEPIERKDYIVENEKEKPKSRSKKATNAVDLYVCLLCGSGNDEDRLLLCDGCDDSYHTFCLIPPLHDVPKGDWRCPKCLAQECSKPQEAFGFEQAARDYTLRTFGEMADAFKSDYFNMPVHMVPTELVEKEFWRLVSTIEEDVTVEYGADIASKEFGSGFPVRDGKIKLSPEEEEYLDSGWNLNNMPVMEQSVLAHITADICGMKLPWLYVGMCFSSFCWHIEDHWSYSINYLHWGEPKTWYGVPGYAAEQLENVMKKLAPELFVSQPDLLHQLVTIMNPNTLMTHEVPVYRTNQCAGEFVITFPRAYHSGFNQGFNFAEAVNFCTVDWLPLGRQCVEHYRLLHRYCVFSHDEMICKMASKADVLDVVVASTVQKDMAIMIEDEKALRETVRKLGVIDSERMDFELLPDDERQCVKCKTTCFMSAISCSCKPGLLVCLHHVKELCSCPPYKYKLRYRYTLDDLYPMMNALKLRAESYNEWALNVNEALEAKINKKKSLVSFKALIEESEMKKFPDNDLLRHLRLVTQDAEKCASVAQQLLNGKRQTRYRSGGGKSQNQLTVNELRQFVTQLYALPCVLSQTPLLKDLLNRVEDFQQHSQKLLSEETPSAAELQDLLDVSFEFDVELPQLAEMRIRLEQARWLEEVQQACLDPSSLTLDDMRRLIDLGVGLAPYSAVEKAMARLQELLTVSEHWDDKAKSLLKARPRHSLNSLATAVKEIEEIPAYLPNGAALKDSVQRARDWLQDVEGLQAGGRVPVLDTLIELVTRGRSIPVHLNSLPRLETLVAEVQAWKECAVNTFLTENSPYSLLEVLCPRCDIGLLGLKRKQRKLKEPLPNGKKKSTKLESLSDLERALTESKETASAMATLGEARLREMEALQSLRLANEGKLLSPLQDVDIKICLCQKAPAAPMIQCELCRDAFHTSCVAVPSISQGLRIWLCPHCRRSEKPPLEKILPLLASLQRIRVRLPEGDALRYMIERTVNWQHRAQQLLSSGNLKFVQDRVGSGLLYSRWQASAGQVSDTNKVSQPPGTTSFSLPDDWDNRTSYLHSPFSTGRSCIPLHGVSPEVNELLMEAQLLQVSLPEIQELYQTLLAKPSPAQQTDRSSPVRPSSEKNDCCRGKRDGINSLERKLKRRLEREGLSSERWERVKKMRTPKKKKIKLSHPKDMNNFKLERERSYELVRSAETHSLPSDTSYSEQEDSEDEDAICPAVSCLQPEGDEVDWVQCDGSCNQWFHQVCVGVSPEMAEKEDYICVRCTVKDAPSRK

Structure (SMILES)	Potency	activity change, negative = inhibition
O=C(Nc1cccc(Cl)c1)c1cnc2c(c1)N(C(=O)CCc1ccccc1)CCC2	inconclusive: 39.8 µM [inhibitor, single point]	
Cc1cc(C)c(NC(=O)Cn2c(=O)n(Cc3ccco3)c(=O)c3ccc(C(=O)NC4CCCC4)cc32)c(C)c1	inconclusive: 2.24 µM [inhibitor, partial curve, poor fit]	
CCC(CNC(=O)c1ccc(C(=O)OC)cc1)c1ccccc1 (stereo not given)	inactive	
CN(C)CCCN(Cc1ccc(Cl)c(Cl)c1)C(=O)/C=C/c1ccncc1	inconclusive: 31.6 µM [inhibitor, single point]	
COc1ccc(-c2c(C#N)c(N)nc3c2CN(Cc2ccccc2)CC3)cc1OC	inconclusive: 25.1 µM [inhibitor, partial curve, poor fit]	
Cc1cccc(N2CCN(C(=O)c3cnn(-c4cccc(Cl)c4C)c3C3CCNCC3)CC2)c1C	inconclusive: 35.5 µM [inhibitor, single point]	
O=C(O)c1ccc(/C=C/c2ccc3ccccc3n2)cc1	inconclusive: 28.2 µM [inhibitor, partial curve, poor fit]	
O=S(=O)(c1ccccc1)n1nc(NCc2ccccc2)nc1NCc1ccccc1	inconclusive: 39.8 µM [inhibitor, single point]	
O=C(NC1CCN(c2cc(-c3ccccc3)[nH]n2)CC1)c1ccc(Cl)cc1	inactive	
COc1ccc(CN2CCC3(C2)C(=NC2CCCCC2)NC(=O)N3c2cccnc2)cc1 (stereo not given)	inactive	
O=C1c2cnc(-c3cccc(CO)c3)nc2OCCN1c1ccccc1	inactive	
O=C1CC(c2noc(-c3ccc4c(c3)OCO4)n2)CN1c1ccc(Cl)cc1 (stereo not given)	active: 28.2 µM	
O=C(O)Cn1ccc2cc(OCc3cccc(-c4ccncc4)c3)cnc21	inconclusive: 35.5 µM [inhibitor, partial curve, poor fit]	
COc1cc(/C=N/Nc2cc(C)nc(N)n2)ccc1O	inconclusive: 28.2 µM [inhibitor, partial curve, poor fit]	
COc1ccc(C(=O)Nc2c(NCc3ccccc3)c3ccccc3oc2=O)cc1	inactive	
O=C(CSc1ccc2c(c1)OCCCO2)c1ccc2c(c1)CCO2	inactive	
CCCCNC(=S)Nc1cccc(C(F)(F)F)c1	inactive	
COc1cc(-c2onc(C)c2C(=O)NCCCSC)cc(OC)c1OC	active: 31.6 µM	
O=C(CCS(=O)(=O)c1nc(-c2ccc3c(c2)OCO3)cc(C(F)(F)F)n1)Nc1ccccc1F	inconclusive: 35.5 µM [inhibitor, partial curve, poor fit]	
CCCc1nc2oc3c(NCCCN(C)C)ncnc3c2c2c1CCCC2	inconclusive: 35.5 µM [inhibitor, partial curve, poor fit]	
O=C(NCCc1nc(-c2cccnc2)n[nH]1)C1NCCc2[nH]cnc21 (stereo not given)	active: 7.94 µM	
O=C(OCc1nnnn1-c1ccccc1)C1(c2ccccc2)CC1	inactive	
COc1ccc(N2CC(c3noc(-c4ccccc4OC)n3)CC2=O)cc1 (stereo not given)	inactive	

Structure (SMILES)	Potency	activity change, negative = inhibition
CCOC(=O)c1[nH]c2ccc(C)cc2c1NC(=O)c1ccccc1F	inconclusive: 14.1 µM [inhibitor, partial curve, poor fit]	
O=C(CCC1CCCC1)N1CCC(c2nc(C3CCOCC3)no2)C1 (stereo not given)	inactive	
Cc1ccc(CNC(=O)c2cc3c(C)nn(C)c3s2)cc1	inactive	
CN(c1ccccc1)c1cc(=O)c2ccnc(-c3ccnn3C)c2o1	inconclusive: 31.6 µM [inhibitor, partial curve]	
C[S+](=O)([O-])c1ccc(-c2nc(C(=O)N3CCCC3)n3ccncc23)cc1	inconclusive: 15.8 µM [inhibitor, full curve, poor fit]	
N#CC1(NC(=O)CSc2nc(-c3cccs3)nc3ccccc23)CCCC1	inconclusive: 28.2 µM [inhibitor, partial curve, poor fit]	
COc1ccccc1Nc1cc(C(=O)NC2CCCC2)c2ccccc2n1		inconclusive: -199% [inhibitor]
COc1ccc(S(=O)(=O)N2CCCCC2)cc1C(=O)Nc1cccc(C(F)(F)F)c1	inconclusive: 39.8 µM [inhibitor, single point]	
O=C(Nc1ccncc1)c1ccc(COc2ccccc2Cl)cc1	inactive	
COc1cccc2sc(=NC(=O)c3ccc(S(=O)(=O)N4CCCCC4)cc3)n(C)c12	inconclusive: 25.1 µM [inhibitor, partial curve, poor fit]	
CCOC(=O)c1cnc(NCc2ccccc2OC)c2ccccc12	inconclusive: 17.8 µM [inhibitor, partial curve, poor fit]	
CCOc1ccc(C2Cn3nnc(-c4nc(-c5cccc(OCC)c5)no4)c3CO2)cc1 (stereo not given)	inconclusive: 11.2 µM [inhibitor, single point]	
CCn1c(=O)cc(SCC(=O)NCCc2ccc(Cl)cc2)c2ccccc21	inconclusive: 25.1 µM [inhibitor, partial curve, poor fit]	
Cn1c(=O)[nH]c(=O)c2c1nc(N/N=C/c1cccnc1)n2Cc1ccc(Cl)cc1	inconclusive: 39.8 µM [inhibitor, single point]	
COCCN1C(=O)[C@@H]2C[C@@H](CN2Cc2ccc(C#N)cc2)Oc2ccccc21	inconclusive: 31.6 µM [inhibitor, single point]	
O=C1Nc2ccccc2CN(CC2CC2)C12CCNCC2	inconclusive: 31.6 µM [inhibitor, partial curve]	
COc1ccc(NC(=O)[C@@H]2C[C@@H](c3cccc(C(F)(F)F)c3)N(C)C2)cc1OC	inactive	
CCOCCCNC(=O)N1CCC2(CC1)CC(N(C(=O)c1ccccc1)C1CC1)CCO2 (stereo not given)	inactive	
O=C(NC1CCCCCC1)c1nc(-c2ccccc2)n(-c2ccccc2)n1	inactive	
CN(C)c1cc(N2C[C@@H](CN3CCOCC3)C[C@H](CO)C2)ncn1	inconclusive: 25.1 µM [inhibitor, partial curve, poor fit]	
CC1CCC(NC(=O)c2ccc(C(N)=O)cc2)CC1 (stereo not given)	inactive	
Cn1nc(C(=O)OCc2ccc(C(C)(C)C)cc2)c2ccccc2c1=O	inactive	
